We go through 52 compounds from PubChem BioAssay AID1346428 (National Center for Advancing Translational Sciences (NCATS), 2018).

Out of some 48,000 compounds screened, about 1,200 (2.5%) were called active. Another 2% or so got no clear call; they are omitted.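 Rule for the calls: active = activation of at least 60% and not above a set upper limit (about 1 call in 100 departs from these limits); inconclusive = activation of 40% to 60%, or above that upper limit; inactive = activation under 40%.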 Some of the results follow.

Sequence of UniProt O75388 (O75388 whole entry, looked up, the tested form may be a part): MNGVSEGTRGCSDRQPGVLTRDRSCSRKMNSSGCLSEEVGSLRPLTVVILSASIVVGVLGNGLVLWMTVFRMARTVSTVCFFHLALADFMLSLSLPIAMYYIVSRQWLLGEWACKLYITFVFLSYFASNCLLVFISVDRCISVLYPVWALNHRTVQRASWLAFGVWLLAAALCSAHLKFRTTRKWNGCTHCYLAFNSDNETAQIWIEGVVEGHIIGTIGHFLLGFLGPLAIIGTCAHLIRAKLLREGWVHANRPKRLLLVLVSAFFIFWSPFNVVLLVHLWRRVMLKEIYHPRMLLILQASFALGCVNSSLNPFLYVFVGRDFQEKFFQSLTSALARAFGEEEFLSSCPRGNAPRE

This experiment concerns the target Probable G-protein coupled receptor 32 (Homo sapiens) (UniProt O75388). In words: qHTS for Agonists of Human Resolvin D1 Receptor DRV1. Note: 0% is about no effect. The settings on record: CHO-K1 GPR32 beta-arrestin PathHunter luminescence, 90 min; at 76.9 µM; stronger effect = higher value; zero percent set by DMSO-only wells. The procedure, abridged:
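Agonism was scored by beta-Gal fragment complementation (chemiluminescent read, 1 h detection at ambient temperature) reporting beta-arrestin binding to GPR32 in engineered CHO-K1 cells. Compound treatment lasted 90 min at 37 C, normalized to a DMSO basal control.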
`Cc1cc(C)c2oc(C(=O)Nc3ccc(S(=O)(=O)Nc4ncccn4)cc3)cc(=O)c2c1`: the activation was inactive: 9.11%. Next, `CCc1ccc2c(c1)NC(c1ccc(F)cc1)=NC(c1ccncc1)=N2`: inactive: -25%.

Take `COc1ccccc1NC(=O)c1sc(-c2ccc(Cl)cc2)cc1N`: the activation was inactive: -19.9%. Consider `O=C(Nc1ccccc1C(F)(F)F)c1cc2nc(-c3ccccc3)cc(-c3ccccc3)n2n1`, for which the activation was inactive: 0.396%. Next, `CCCS(=O)(=O)c1nc(S(=O)(=O)c2ccc(C)cc2)c(NCCCOC(C)C)s1`: inactive: -34%; `COc1ccc2nc(SCC(O)c3cccc(Br)c3)[nH]c2c1` (configuration not stated): inactive: -10.3%; `COc1cccc2c1cc1c(=O)n(CC(=O)N3CCN(c4ccc(F)cc4)CC3)nc(C)n12`: inactive: -7.92%. For `O=C(Cn1nc(N2CCN(c3ccccc3)CC2)ccc1=O)NCc1ccccc1F` the value was inactive: 9.91%; for `COc1ccc(-c2cn3c(n2)sc2cc(C(=O)NCCCc4ccccc4)ccc23)cc1`, inactive: 21.7%.

On to `CCN(CC)C(=O)CSc1nc2cc3c(cc2c(=O)n1CCCC(=O)NCc1ccc2c(c1)OCO2)OCO3`, for which the activation is inactive: -18.8%. For `Cc1nn(-c2ccc(N3CCCCC3)nn2)c(C)c1CCC(=O)NCc1ccccc1` the value was inactive: -7.53%; for `Cc1ccc(Sc2ccc(N3CCCC(C(=O)Nc4ccc(F)cc4)C3)nn2)cc1` (configuration not stated), inactive: 12.2%; for `Cc1ccc(-c2nnc(SCC(=O)NC(C)(C)C)nc2-c2ccc(C)cc2)cc1`, inactive: -19%.

For `Cc1cccc(C(=O)Nc2ccccc2OCc2cc(=O)n3ccccc3n2)c1`, the activation is inactive: 0.444%. Next, `CCOc1ccc(NC(=O)c2cn(C3CCCCC3)c(=O)c3c2c2ccccc2n3C)cc1`: inactive: -1.21%. Consider `CCOc1ccc(C(=O)N(Cc2nc(-c3cccc(C)c3)no2)C(C)C)cc1`, for which the activation was inactive: -14%.

Regarding `Cn1c(=O)c2c(nc(NCCc3ccccc3)n2Cc2ccccc2Br)n(C)c1=O`, the activation is inactive: -1.82%.

With `COc1ccc(-c2nc(CN3CCC(C(=O)NCc4ccc(C)cc4)CC3)c(C)o2)cc1OC`, the activation is inactive: 36.6%. In the case of `CCOc1ccc(CNC(=O)CCCn2c(=O)c3cccn3c3ccccc32)cc1`, the activation is inactive: -13.2%.

As for `CC(=O)OCC(=O)[C@@]1(O)[C@H](OC(C)=O)C[C@H]2[C@@H]3CCC4=CC(=O)C=C[C@]4(C)[C@@]3(F)[C@@H](O)C[C@@]21C`, the activation was inactive: 11.8%. `COc1ccccc1CNc1ncnc2onc(-c3ccc(F)cc3)c12`: the activation was inactive: 9.04%.

On to `CCOc1ccccc1Nc1nc2ccccc2nc1NS(=O)(=O)c1ccc(Cl)cc1`, for which the activation was active: 67.1%.

Regarding `COc1ccc(C(=O)n2nc(-c3cccnc3)nc2NCc2ccccc2)cc1OC`, the activation was inactive: -7.34%. For `COc1ccc(CCNC(=O)C(=O)NCC(c2cccs2)S(=O)(=O)c2cccs2)cc1` (configuration not stated) the value was inactive: 33.5%; for `CC(=O)N1CCCc2cc(S(=O)(=O)N3CCC(C(=O)Nc4c(C)cccc4C)CC3)ccc21`, inactive: -2.78%; for `COc1cccc(-c2nc(SCC(=O)NCc3ccco3)c3c(=O)n(C)c(=O)n(C)c3n2)c1`, inactive: 19.6%. Next, `CC1CCN(C(=O)Cn2cc(SCC(=O)Nc3ccccc3)c3ccccc32)CC1`: inactive: -11%; `COc1ccc(Cn2c(=O)n(-c3ccc(OC)cc3)c(=O)c3c2c2cc(OC)ccc2n3C)cc1`: inactive: -1.89%.

As to `CCOC(=O)c1noc2ncnc(N3CCN(c4cccc(C(F)(F)F)c4)CC3)c12`, the activation was inactive: -29.4%. For `CCN(CC)S(=O)(=O)c1ccc2c(c1)c(=O)c(C(=O)NCc1ccccc1Cl)cn2C` the value was inactive: 27.3%; for `COc1ccc(-c2cc(C)no2)cc1S(=O)(=O)NCc1ccco1`, inactive: -11.4%; for `O=C(CSc1c2c(nc3cc(Cl)ccc13)CCCC2)N1CCN(c2ccccc2)CC1`, inactive: -34.7%. For `COc1ccc(-n2c(SCc3ccccc3F)nc3c([nH]c4ccccc43)c2=O)cc1OC` the value was inactive: -6.08%. `COc1cc(NC(=O)c2c3c(nc4ccccc24)C(=O)N(C2CCCCC2)C3)cc(OC)c1`: the activation was inactive: -12.9%. On to `CCOC(=O)c1c(-c2ccc(C)cc2)csc1NC(=O)c1cc(=O)c2cc(C)cc(C)c2o1`, for which the activation is inactive: -4.81%. For `CCOc1ccc(-c2nonc2NC(=O)c2oc3ccc(C)cc3c2C)cc1OCC` the value was inactive: -5.91%.

Consider `Cc1ccc(S(=O)(=O)Cc2nc(-c3ccc(C(=O)NCc4ccccc4C)cc3)oc2C)cc1`, for which the activation was inactive: -1.94%.

Turning to `COc1ccc(Cn2ccn(Cc3cccc(Cl)c3)c(=O)c2=O)cc1`, the activation is inactive: -11.9%.

In the case of `CC(=O)c1ccc(NC(=O)C2=CC(c3ccc(C)cc3)=NS(=O)(=O)N2C)cc1`, the activation is inactive: -5.79%. `CCCn1cc(S(=O)(=O)c2ccc(OC)cc2)c(=O)c2cc(F)c(N3CCCC(C)C3)cc21` (configuration not stated): the activation was inactive: 1.55%.

Turning to `Cc1ccc(C(=O)Nc2nc3nc(-c4ccccc4)cc(=O)n3[nH]2)cc1`, the activation is inactive: 41.9%. For `O=C(COc1ccccc1F)Nc1c(C(=O)Nc2cccc(F)c2)oc2ccccc12` the value was inactive: -5.9%; for `CCCCCOC(=O)CSc1nc2sc3c(c2c(=O)n1-c1ccccc1)CC(C)(CC)OC3` (configuration not stated), inactive: -20.3%; for `O=C(Nc1cc(-c2ccccc2F)nn1-c1ccccc1)c1ccccc1Br`, inactive: -15%.

For `O=C(Nc1cc(-c2ccc(Cl)cc2)no1)c1ccc(F)cc1`, the activation is inactive: 2.74%. `CCCSCCCNC(=O)CN1C(=O)COc2ccc(S(=O)(=O)N3CCCC3)cc21`: the activation is inactive: -14.8%. For `COCCc1nn2c(=O)cc(COC(=O)c3ccccc3C)nc2s1`, the activation was inactive: 8.94%. Next, `Cc1ccc(C)c(N2CCN(C(=O)c3ccc4c(=O)n(CCc5ccccc5)c(=O)[nH]c4c3)CC2)c1`: inactive: -9.06%. For `O=C1Nc2ccc(I)cc2/C1=C/c1cc(Br)c(O)c(Br)c1` the value was inactive: -22.8%. For `O=C(COc1ccc(F)cc1)Nc1ccccc1C(=O)OCc1cc(=O)n2ccsc2n1` the value was inactive: 1.5%; for `CCOC(=O)c1[nH]c2c(c1Cc1ccccc1OC)C(=O)CC(c1ccccc1)C2` (configuration not stated), inactive: -25.9%; for `CCCCn1c(=O)c2oc3ccccc3c2n(Cc2ccccc2C)c1=O`, inactive: -22.9%.
